Test results reported in PubChem BioAssay AID624417 (National Center for Advancing Translational Sciences (NCATS), 2012).
Screen size: about 410,000 compounds; about 6,400 (1.6%) were called active. Inconclusive results, whose numbers are uncertain, are shown with a selection of clear calls. Calls come from the whole dose curve; as a rule, active = well fitted inhibition curve with a large enough effect; inconclusive = small, poorly fitted or top-dose-only effect; inactive = no such curve, though single readings can be large or run the other way. No potency is given beside an inconclusive call; the fits are too rough.

What follows are compounds tested against Glucagon-like peptide 1 receptor (Homo sapiens) (UniProt P43220) (assay: qHTS of GLP-1 Receptor Inverse Agonists (Inhibition Mode)). Settings: HEK293 GLP-1R CRE-luciferase, luminescence, 24 h; Potency: GLP-1R form is constitutively active unless noted; series mostly up to 38.3 µM.
Outline: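 Constitutively active GLP-1R drives a cAMP-responsive luciferase in stably transfected HEK293 cells; test compounds are added after overnight (12 h) attachment and left 24 hr, and signal loss in luminescence marks inhibition.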
Note: nearly all actives have a fitted effect of over 55% in size.
Potency is the fitted concentration of half-maximal effect; tags give direction and shape of the fitted curve.

Chain of UniProt P43220 (P43220 whole entry, looked up): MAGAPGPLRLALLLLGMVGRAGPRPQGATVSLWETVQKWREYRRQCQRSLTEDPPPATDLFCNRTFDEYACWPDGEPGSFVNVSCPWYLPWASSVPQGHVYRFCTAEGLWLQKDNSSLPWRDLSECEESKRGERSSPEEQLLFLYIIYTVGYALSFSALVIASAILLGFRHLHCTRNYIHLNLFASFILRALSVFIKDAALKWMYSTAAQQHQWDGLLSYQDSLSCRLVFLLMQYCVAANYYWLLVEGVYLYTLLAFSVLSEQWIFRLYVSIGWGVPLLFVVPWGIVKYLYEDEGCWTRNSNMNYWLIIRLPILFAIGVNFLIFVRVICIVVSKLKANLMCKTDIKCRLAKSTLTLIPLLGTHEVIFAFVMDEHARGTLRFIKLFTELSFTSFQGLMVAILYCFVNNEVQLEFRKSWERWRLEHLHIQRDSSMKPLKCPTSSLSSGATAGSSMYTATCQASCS

**Q.** Which Potency does the source give for `CN(C)c1ccc(/C=C/[N+](=O)[O-])cc1` here?
**A.** inactive

**Q.** With `CCCCOc1nc2ccccc2c(=O)n1-c1ccccc1` as the compound, how does the Potency read?
**A.** inconclusive [inhibitor, full curve, poor fit]

**Q.** Which Potency does the source give for `COc1ccccc1N1CCN(Cc2ccc(SC)cc2)CC1` here?
**A.** inconclusive [inhibitor, single point]

**Q.** How did the Potency turn out when `CCN(CC)C(=O)Oc1ccc(Br)cc1C(=O)Nc1ccc(F)c(Cl)c1` was run?
**A.** inconclusive [inhibitor, full curve]

**Q.** For `CCOP(=S)(OCC)SCC(=O)NC(C(=O)O)C(C)C` (stereo not given), which Potency is on record?
**A.** inconclusive [inhibitor, partial curve]

**Q.** For `CCOC(C(=O)OCCCN(CC)CC)(c1ccccc1)c1ccccc1`, which Potency is on record?
**A.** inconclusive [inhibitor, partial curve, poor fit]

**Q.** With `CC(C)(C)NCc1cccn1-c1sc2c(c1C#N)CCCC2` as the compound, how does the Potency read?
**A.** inconclusive [inhibitor, single point]

**Q.** `CC(C)Cc1nnc(NC(=O)CCC(=O)N2CCN(CCOC(c3ccccc3)c3ccccc3)CC2)s1` was tested. Which Potency did it give?
**A.** inconclusive [inhibitor, single point]

**Q.** `COc1ccc(-n2nnnc2C(c2cccc(OC)c2OC)N2CCC(n3c(=O)[nH]c4ccccc43)CC2)cc1` (stereo not given) was tested. Which Potency did it give?
**A.** inconclusive [inhibitor, single point]

**Q.** `COc1ccc(CNCCc2c[nH]c3ccccc23)c(OC)c1OC` was tested. Which Potency did it give?
**A.** inconclusive [inhibitor, single point]

**Q.** For `Cc1ccc(Cl)cc1N1CCN(C(=O)C2CCN(S(=O)(=O)c3ccc4c(c3)oc(=O)n4C)CC2)CC1`, which Potency is on record?
**A.** inconclusive [inhibitor, single point]

**Q.** For `O=C(c1cccc2ccccc12)C1CCCN(Cc2ccon2)C1` (stereo not given), which Potency is on record?
**A.** inconclusive [inhibitor, partial curve, poor fit]

**Q.** With `Cc1ccc(C)c(CN2C(=O)c3ccccc3Sc3ccc(C(=O)N4CCC5(CC4)OCCO5)cc32)c1` as the compound, how does the Potency read?
**A.** inconclusive [inhibitor, partial curve, poor fit]

**Q.** For `Clc1ccc(-c2nc3ccc(Cl)cn3c2CN2CCCCC2)cc1`, which Potency is on record?
**A.** inconclusive [inhibitor, partial curve, poor fit]

**Q.** With `Clc1ccc2nc3c(c(-c4ccccc4)c2c1)CNCC3` as the compound, how does the Potency read?
**A.** inconclusive [inhibitor, single point]

**Q.** Which Potency does the source give for `CC(c1ccccc1)(c1ccccc1)c1ccncc1` here?
**A.** inconclusive [inhibitor, single point]

**Q.** Which Potency does the source give for `Cc1cccc(N2CCN(Cc3ccc4c(c3)OCO4)CC2)c1C` here?
**A.** inconclusive [inhibitor, single point]

**Q.** Which Potency does the source give for `Cc1ccc(CN2C3CCCC2CC(NC(=O)c2ccc(F)cc2)C3)cc1` (stereo not given) here?
**A.** inconclusive [inhibitor, partial curve, poor fit]

**Q.** How did the Potency turn out when `O=C(c1ccc2c(c1)N(Cc1c(F)cccc1Cl)C(=O)c1ccccc1S2)N1CCC2(CC1)OCCO2` was run?
**A.** inconclusive [inhibitor, single point]

**Q.** How did the Potency turn out when `Cc1ccc(OP(=O)(NC(C)c2ccccc2)Oc2ccc(C)cc2)cc1` (stereo not given) was run?
**A.** inconclusive [inhibitor, partial curve, poor fit]

**Q.** For `O=C(c1ccccc1)C(Cc1ccccc1)N1CCOCC1` (stereo not given), which Potency is on record?
**A.** inconclusive [inhibitor, partial curve, poor fit]

**Q.** For `O=C1CC(NC(=O)C(F)(F)F)=NN1c1ccccc1`, which Potency is on record?
**A.** active: 2.51 µM

**Q.** With `O=Cc1c(C(=O)O)n(Cc2ccc(Cl)cc2)c2ccccc12` as the compound, how does the Potency read?
**A.** inconclusive [inhibitor, partial curve, poor fit]

**Q.** Which Potency does the source give for `O=C(OCc1ccccc1)N1CCC2CC1c1cc(N3Cc4ccccc4-n4nncc4C3)ccc12` (stereo not given) here?
**A.** inconclusive [inhibitor, single point]

**Q.** Which Potency does the source give for `CCn1cc(C(=O)NCc2ccccc2)c2ccccc21` here?
**A.** inconclusive [inhibitor, single point]

**Q.** `O=C(CCS(=O)(=O)c1ccc(Cl)cc1)Nc1cccc(S(=O)(=O)N2CCCCCC2)c1` was tested. Which Potency did it give?
**A.** inconclusive [inhibitor, partial curve, poor fit]

**Q.** `COC(=O)C1=C(c2cccc(OC)c2OC)C[C@@H]2CC[C@H]1N2C(=O)NCc1cccc2ccccc12` was tested. Which Potency did it give?
**A.** inconclusive [inhibitor, single point]

**Q.** `CN(C)C(Cc1ccccc1)C(=O)c1c[nH]c2ccccc12` (stereo not given) was tested. Which Potency did it give?
**A.** active: 12.6 µM [setting not given]

**Q.** With `NC(=S)NN=C1CCC2(CCCCC2)CC1` as the compound, how does the Potency read?
**A.** inconclusive [inhibitor, single point]

**Q.** With `CCOC(=O)C1(CCOc2ccccc2)CCN(Cc2cccc(O)c2)CC1` as the compound, how does the Potency read?
**A.** inconclusive [inhibitor, partial curve, poor fit]

**Q.** For `S=C(NCCc1ccccc1)N1Cc2ccccc2-n2nncc2C1`, which Potency is on record?
**A.** inconclusive [inhibitor, single point]

**Q.** For `COc1ccc(OCC(=O)N2CCCC(N3CCN(c4ccccc4C)CC3)C2)cc1` (stereo not given), which Potency is on record?
**A.** inconclusive [inhibitor, partial curve, poor fit]

**Q.** For `COC(=O)c1ccc(N2C(=O)CC(N3CCC(n4c(=O)[nH]c5ccccc54)CC3)C2=O)cc1` (stereo not given), which Potency is on record?
**A.** inactive

**Q.** For `CCOc1cc2c(cc1OCC)-n1cccc1C(c1cccc([N+](=O)[O-])c1)NC2` (stereo not given), which Potency is on record?
**A.** inconclusive [inhibitor, partial curve, poor fit]

**Q.** Which Potency does the source give for `CN1CCC(OC(=O)C2c3ccccc3Oc3ccccc32)CC1` here?
**A.** inconclusive [inhibitor, partial curve, poor fit]

**Q.** With `O=[N+]([O-])c1cc2c(cc1CNCCc1ccc3c(c1)OCO3)OCO2` as the compound, how does the Potency read?
**A.** inactive

**Q.** For `COC(=O)C1=C(c2ccccc2OCc2ccccc2)C[C@@H]2CC[C@H]1N2C(=O)NCc1ccc(Cl)cc1`, which Potency is on record?
**A.** inconclusive [inhibitor, partial curve, poor fit]

**Q.** Which Potency does the source give for `CC(N)Cc1c[nH]c2ccc(Cl)cc12` (stereo not given) here?
**A.** inactive

**Q.** How did the Potency turn out when `CCOC(=O)c1c(C)n(COCCO)c2ccc(O)cc12` was run?
**A.** inactive

**Q.** How did the Potency turn out when `COc1ccc(OC)c(CN2CCCC(C(=O)c3sccc3C)C2)c1` (stereo not given) was run?
**A.** inconclusive [inhibitor, single point]
